In all, about 350,000 compounds went through this assay and about 260 (0.074%) were called active. The shares of active, inactive and inconclusive entries below differ from those in the screen. Calls follow the shape of the dose curve; as a rule, active = well fitted inhibition curve with a large enough effect; inconclusive = small, poorly fitted or top-dose-only effect; inactive = no such curve, though single readings can be large or run the other way. Where the call is inconclusive, the potency comes from a doubtful curve fit.
What follows are molecules tested against Ferritin light chain (Equus caballus) (UniProt P02791) (assay: qHTS Assay for Identification of Novel General Anesthetics). Details: apoferritin/1-aminoanthracene competitive binding, fluorescence; activity change, negative = displacement: at 77.5 µM (top of the series).
Chain of UniProt P02791 (P02791 whole entry, looked up): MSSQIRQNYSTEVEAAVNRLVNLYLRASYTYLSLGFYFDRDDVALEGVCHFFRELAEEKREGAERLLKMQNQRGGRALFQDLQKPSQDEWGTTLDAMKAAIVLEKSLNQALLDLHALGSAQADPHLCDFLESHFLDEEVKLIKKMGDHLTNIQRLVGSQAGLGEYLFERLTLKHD
How it was run: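 Horse-spleen apoferritin (10 uM) was mixed with 50% saturated 1-aminoanthracene in PBS, exposed to compounds for 10 min at room temperature, and read for fluorescence (ex 380 nm, em 535 nm). Competitive displacement was fitted with a four-parameter Hill equation.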
% is scaled to controls: 0 for no effect and ±100 for the full control effect; potency is read from the fitted curve at half-maximal effect; tags tell the direction and shape of the fitted curve.
Also: nearly all actives have a fitted effect of over 20% in size.

| Compound | Potency | activity change, negative = displacement |
| --- | --- | --- |
| CC1(Br)C2CCCC1C2S(=O)(=O)c1ccccc1 (stereo not drawn) | inconclusive: 50.1 µM [inhibitor, single point] | – |
| O=C(Oc1ccc2c(c1)C(=O)c1ccccc1CO2)c1ccccc1 | inconclusive: 44.7 µM [inhibitor, partial curve] | – |
| Cc1ccc(N2CCN(S(=O)(=O)c3cc(Br)cc4c3N(C(=O)C3CC3)CC4)CC2C)cc1 (stereo not drawn) | inactive | – |
| Cc1ccccc1C(=O)c1cccn1CC(=O)NC(C)c1ccccc1 (stereo not drawn) | – | inconclusive: -28.7% [inhibitor] |
| C#C[C@]1(OC(C)=O)CCC2C3CCC4=CC(=O)CC[C@@H]4C3CC[C@@]21C (stereo partly drawn) | inconclusive: 25.1 µM [inhibitor, partial curve] | – |
| COc1cc(NC(=O)c2ccccc2)c(OC)cc1Cl | inactive | – |
| COc1cc(/C=C2\N=C3CCCCCN3C2=O)ccc1O | inactive | – |
| CCS(=O)(=O)N1CC(=O)N(c2ccc(C)c(C)c2)C(C)(C(=O)NC2CCCCCC2)C1 (stereo not drawn) | inactive | – |
| COc1cc(O)c2c(=O)c(-c3ccc(O[C@@H]4O[C@H](CO)[C@@H](O)[C@H](O)[C@H]4O)cc3)coc2c1 | inactive | – |
| Cc1cc(OCc2cc(C(=O)N(C)C3CCOC3)no2)cc(C)c1Cl (stereo not drawn) | inconclusive: 44.7 µM [inhibitor, single point] | – |
| CC(C)CCSc1nc2[nH]ncc2c(=O)[nH]1 | inconclusive: 17.8 µM [inhibitor, partial curve] | – |
| O=C1c2[nH]nc(-c3ccccc3O)c2C(c2ccc(F)cc2)N1CC1CCCO1 (stereo not drawn) | inactive | – |
| CCOc1ccc(N2C(=O)CS/C2=N/NC(=O)COc2ccc3ccccc3c2)cc1 | inconclusive: 44.7 µM [inhibitor, single point] | – |
| Cc1c(C(=O)OCC(=O)Nc2ccc(S(N)(=O)=O)cc2)oc2c1ccc1ccccc12 | inconclusive: 10 µM [inhibitor, partial curve] | – |
| Clc1ccccc1Oc1cnc2ccccc2n1 | inconclusive: 17.8 µM [inhibitor, partial curve] | – |
| CCOc1ccc2[nH]c3nc(SCC(=O)NCC4CCCO4)nnc3c2c1 (stereo not drawn) | inactive | – |
| C/C(CCC(=O)OC[C@H]1O[C@H](C#Cc2ccccc2)C=C[C@@H]1Oc1ccc(C)cc1)=N\O[C@@H](C)CN1CCCCc2nc(C)c(C)cc21 | inconclusive: 8.91 µM [inhibitor, full curve, poor fit] | – |
| COc1ccc(CCNC(=O)c2cccc(NC(=O)CC3SC(N4CCCCC4)=NC3=O)c2)cc1OC (stereo not drawn) | inconclusive: 28.2 µM [inhibitor, partial curve] | – |
| Cc1ccsc1/C=N/NC(=O)CNC(=O)c1cccc([N+](=O)[O-])c1C | inconclusive: 12.6 µM [inhibitor, partial curve] | – |
| CCCCCCCCCCCCOC(=O)C[N+](C)(C)C | inconclusive: 28.2 µM [inhibitor, single point] | – |
| O=C1NC(Cc2ccccc2)C(=O)N1Cc1cc([N+](=O)[O-])cc2c1OCOC2 (stereo not drawn) | inconclusive: 31.6 µM [inhibitor, partial curve] | – |
| O=C1COc2ccc(-c3cc(-c4ccc(F)cc4)c4c(n3)-c3ccccc3OC4)cc2N1 | inactive | – |

| Compound | Potency | activity change, negative = displacement |
| --- | --- | --- |
| Cc1cc(OCC(=O)N(C(C)C)C(C)C)ccc1Cl | inconclusive: 15.8 µM [inhibitor, partial curve] | – |
| O=C(O)CC(NC(=O)c1ccco1)c1ccco1 (stereo not drawn) | inactive | – |
| Cc1ccc(C(=O)c2cc([N+](=O)[O-])ccc2N2CCN(C)CC2)cc1 | inconclusive: 28.2 µM [inhibitor, partial curve] | – |
| O=C(c1ccc(N2CCN(C3CC(=O)N(Cc4cccs4)C3=O)CC2)cc1)c1cccnc1 (stereo not drawn) | inconclusive: 25.1 µM [inhibitor, partial curve] | – |
| Cc1ccc(-c2[nH]ncc2/C=C(\C#N)C(=O)NC2CCCCC2)cc1 | inconclusive: 35.5 µM [inhibitor, partial curve] | – |
| Cc1ccc2nc(=O)c(NNc3ccccc3)cnc2c1 | inactive | – |
| Cc1ccc(-c2nc(CNC(=O)c3ccco3)cs2)cc1 | inconclusive: 35.5 µM [inhibitor, partial curve] | – |
| CC(C)=CCCC1(C)C=Cc2c(c(C)cc3c2[nH]c2cc(O)ccc23)O1 (stereo not drawn) | inconclusive: 35.5 µM [inhibitor, single point] | – |
| CC(C)(C)C(=O)c1no[n+]([O-])c1/C(=N/O)C(C)(C)C | inconclusive: 20 µM [inhibitor, partial curve] | – |
| CC(C)CNC(=O)NC(=O)COC(=O)COc1ccc(Cl)cc1Cl | inconclusive: 35.5 µM [inhibitor, single point] | – |
| Cc1sc2ncn(CC(=O)OC(C)C)c(=O)c2c1C | inconclusive: 35.5 µM [inhibitor, partial curve, poor fit] | – |
| CCc1ccccc1N1C(=O)N(C)c2ccccc2S1(=O)=O | inactive | – |
| O=C1C(=O)N(c2cccc(Cl)c2)C(c2ccccc2[N+](=O)[O-])/C1=C(\O)c1ccccc1 (stereo not drawn) | inconclusive: 31.6 µM [inhibitor, partial curve] | – |
| COc1ccc(CC(=O)Nc2nc(-c3ccc(F)c(F)c3)cs2)cc1 | inactive | – |
| Cc1cccc(-n2c(SCC(=O)Nc3ccccc3C)nc3c(oc4ccccc43)c2=O)c1 | inactive | – |
| CCN(CCCNC(=O)c1[nH]c(C)c(C(C)=O)c1C)c1cccc(C)c1 | inconclusive: 31.6 µM [inhibitor, partial curve] | – |
| CC(C)(C)c1csc(NC(=O)c2c(F)c(F)c(F)c(F)c2F)n1 | inconclusive: 50.1 µM [inhibitor, single point] | – |
| Cc1oc(-c2ccccc2Cl)nc1CS(=O)CC(=O)NCc1ccc2c(c1)OCO2 (stereo not drawn) | inconclusive: 15.8 µM [inhibitor, partial curve] | – |
| COc1ccc2nc3cc(Cl)ccc3c(Nc3cc(CN4CCCC4)c(O)c(CN4CCCC4)c3)c2n1 | inconclusive: 15.8 µM [inhibitor, partial curve] | – |
| CC(C)c1ccc(S(=O)(=O)c2cnc(SCC(=O)Nc3ccc(F)cc3F)nc2N)cc1 | inconclusive: 3.16 µM [inhibitor, full curve] | – |
| Cc1ccc(-n2nc3c(N4CCC(C(=O)NCCC(C)C)CC4)nnc(C)c3c2C)cc1 | inactive | – |

From PubChem BioAssay AID485281 (National Center for Advancing Translational Sciences (NCATS), 2010)
